# Experimental data from ChEMBL document CHEMBL1133837, “Discovery of selective hydroxamic acid inhibitors of tumor necrosis factor-alpha converting enzyme” (Bioorg Med Chem Lett, 2001).
# Columns and labels:
# [1] = molecular target: 72 kDa type IV collagenase (Homo sapiens, UniProt P08253)
# [2] = molecular target: T1, Interstitial collagenase (Homo sapiens, UniProt P03956)
# T1 sequence (P03956 whole entry): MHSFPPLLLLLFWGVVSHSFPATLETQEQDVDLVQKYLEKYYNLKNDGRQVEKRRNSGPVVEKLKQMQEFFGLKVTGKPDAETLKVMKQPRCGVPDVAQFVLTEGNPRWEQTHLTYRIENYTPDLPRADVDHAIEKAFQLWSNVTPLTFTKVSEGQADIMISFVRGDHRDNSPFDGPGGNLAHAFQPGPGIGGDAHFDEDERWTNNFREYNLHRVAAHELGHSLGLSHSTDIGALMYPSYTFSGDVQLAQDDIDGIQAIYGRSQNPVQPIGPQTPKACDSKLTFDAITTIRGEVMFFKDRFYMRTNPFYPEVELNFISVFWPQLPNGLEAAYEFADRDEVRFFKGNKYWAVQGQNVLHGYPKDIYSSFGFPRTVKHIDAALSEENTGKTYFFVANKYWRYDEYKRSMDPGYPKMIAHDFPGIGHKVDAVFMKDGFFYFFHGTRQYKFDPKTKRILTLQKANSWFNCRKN
# [3] = molecular target: T2, Disintegrin and metalloproteinase domain-containing protein 17 (Homo sapiens, UniProt P78536)
# [4] = molecular target: T2, Disintegrin and metalloproteinase domain-containing protein 17; type: functional, cell-based, THP-1
SMILES,IC50 [1] [nM],IC50 [2] [nM],IC50 [3] [nM],IC50 [4] [nM]
COCCOc1cc(CCC[C@H]2C(=O)N[C@H](C(=O)c3ccccc3)Cc3ccc(cc3)OCCCC[C@@H]2C(=O)NO)cc(OC)c1,4000,,,
CNC(=O)[C@@H]1Cc2ccc(cc2)OCCCC[C@H](C(=O)NO)[C@@H](CCCc2ccc(OC)c(OC)c2)C(=O)N1,,230,,
CC1(C)SCCN(S(=O)(=O)c2ccc(Oc3cccnc3)cc2)[C@H]1C(=O)NO,0.048,,7.9,8600
CNC(=O)[C@@H]1Cc2ccc(cc2)OCCCC[C@H](C(=O)NO)[C@@H](CCCc2ccc(Cl)cc2)C(=O)N1,,2.3,,
COc1cc(Oc2ccc(S(=O)(=O)CC(C)C(=O)NO)cc2)cc(OC)c1OC (configuration not stated),,,6.5,41000
CNC(=O)[C@@H]1Cc2ccc(cc2)OCCCC[C@H](C(=O)NO)[C@@H](CCCc2cc(OC)c(OC)c(OC)c2)C(=O)N1,,2300,,
O=C(c1ccccc1)[C@@H]1Cc2ccc(cc2)OCCCC[C@H](C(=O)NO)[C@@H](CCCc2cc(Br)cc(Br)c2)C(=O)N1,,9200,,
CCOc1ccc(CCC[C@H]2C(=O)N[C@H](C(=O)NC)Cc3ccc(cc3)OCCCC[C@@H]2C(=O)NO)cc1,,6.8,,
CNC(=O)[C@@H]1Cc2ccc(cc2)OCCCC[C@H](C(=O)NO)[C@@H](CCCc2cccc3ccccc23)C(=O)N1,0.23,28,6,440
CNC(=O)[C@@H]1Cc2ccc(cc2)OCCCC[C@H](C(=O)NO)[C@@H](CCCc2cc(OC)ccc2OC)C(=O)N1,,140,,
Cc1ccc(CCC[C@H]2C(=O)N[C@H](C(=O)c3ccccc3)Cc3ccc(cc3)OCCCC[C@@H]2C(=O)NO)cc1,,320,,
